{"source": "PubChem BioAssay AID1508624", "about": "(National Center for Advancing Translational Sciences (NCATS), 2021)", "note": "In all, about 48,000 compounds went through this assay and about 120 (0.25%) were called active. Roughly 4% stayed inconclusive and do not appear here. The call rests on the fitted dose curve; in most records, active means well fitted activation curve with a large enough effect; inconclusive means small, poorly fitted or top-dose-only effect, or another doubt; inactive means no such curve, though single readings can be large or run the other way. This is one part of the list."}
{"test": "Primary qHTS for Identification of Small Molecule Activators of Huntingtin-Antisense Promoter Activity; further: nearly all actives have a fitted effect of over 55% in size", "conditions": "HEK293 HTT-AS promoter firefly luciferase reporter (activity 0% = vehicle and -100% = no light), 24 h; series mostly up to 57.5 µM; activity change, positive = activation: at the top concentration", "method_in_brief": "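HEK293 luciferase promoter-reporter cells (2,500/well) plated 24 h, then compounds added at up to 57.5 uM final for 24 h at 37 °C. Firefly luminescence by Dual-Glo, normalized to vehicle (0%) and zero RLU (-100%).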"}
{"smiles": "CC1CCc2c(sc3nc(-c4cc5cc(Br)ccc5oc4=O)[nH]c(=O)c23)C1", "note": "(configuration not stated)", "activity change, positive = activation": "inactive: -1.59%"}
{"smiles": "O=C(CCS(=O)(=O)c1cccc2nonc12)Nc1c(F)cccc1F", "activity change, positive = activation": "inactive: -2.51%"}
{"smiles": "CCOC(=O)c1ccc(CN(Cc2ccc(F)cc2)S(=O)(=O)c2ccc(F)c(C(=O)Nc3ccc(Cl)cc3F)c2)cc1", "activity change, positive = activation": "inactive: -8.78%"}
{"smiles": "O=S(=O)(Nc1ccc(Br)cc1F)c1ccc2nc(-c3ccccc3)[nH]c2c1", "activity change, positive = activation": "inactive: -32.3%"}
{"smiles": "COc1cccc(N2CCN(C(=O)c3cccc(-n4c(C)nc5cccnc54)c3)CC2)c1", "activity change, positive = activation": "inactive: -26.9%"}
{"smiles": "COc1ccc(CCn2c(=O)c3cccnc3n(CC(=O)Nc3ccc(C)c(F)c3)c2=O)cc1OC", "activity change, positive = activation": "inactive: 4.79%"}
{"smiles": "C=Cc1ccc(Cn2c(C(=O)O)c(CNC3CCCCC3)c3ccc(C)cc32)cc1", "activity change, positive = activation": "inactive: -7.51%"}
{"smiles": "COc1ccc(-c2nnc(SCC(=O)Nc3cccc(C(F)(F)F)c3)nc2-c2ccc(OC)cc2)cc1", "activity change, positive = activation": "inactive: -7.75%"}
{"smiles": "O=C1CC(c2nnc(Cc3ccc(F)cc3)o2)CN1c1ccccc1", "note": "(configuration not stated)", "activity change, positive = activation": "inactive: -14%"}
{"smiles": "Cc1cccc(NC(=O)CSc2cn(CC(=O)N3CCC(C)CC3)c3ccccc23)c1C", "activity change, positive = activation": "inactive: 1.29%"}
{"smiles": "COc1ccccc1CNC(=O)c1cc(S(=O)(=O)N2CCCCCC2)cn1C", "activity change, positive = activation": "inactive: -18.8%"}
{"smiles": "Fc1ccccc1-n1ncc2c1ncn1nc(COc3ccc(Cl)cc3)nc21", "activity change, positive = activation": "inactive: -2.61%"}
{"smiles": "COc1ccc(OC)c(NC(=O)c2ccc3nc(C(C)C)oc3c2)c1", "activity change, positive = activation": "inactive: 2.69%"}
{"smiles": "Cc1cccc(N2CCN(S(=O)(=O)c3nnc(NC(=O)c4ccc(Cl)cc4)s3)CC2)c1", "activity change, positive = activation": "inactive: -12.9%"}
{"smiles": "CCc1cccc(NC(=O)c2cc(S(=O)(=O)N3CCCCCC3)cn2C)c1", "activity change, positive = activation": "inactive: -22.1%"}
{"smiles": "COc1ccccc1N1CCN(C(=O)c2cc3c(s2)-c2ccccc2OC3)CC1", "activity change, positive = activation": "inactive: -15.5%"}
{"smiles": "Cc1ccccc1CN1CCC(CNC(=O)c2cc3ccc4cccnc4c3[nH]2)CC1", "activity change, positive = activation": "inactive: -18.9%"}
{"smiles": "CC(C)(C)C(=O)NC1CC(=O)N(c2ccc3c(c2)OCCO3)C1", "note": "(configuration not stated)", "activity change, positive = activation": "inactive: 0.3%"}
{"smiles": "COc1ccccc1NC(=O)c1sc2nc(C)c(C(=O)Nc3ccc(Cl)cc3)c(-c3ccc(Br)cc3)c2c1N", "activity change, positive = activation": "inactive: -29.4%"}
{"smiles": "CCc1ccc2oc(C(=O)Nc3nc(-c4ccc(F)cc4)ns3)c(C)c2c1", "activity change, positive = activation": "inactive: 1.71%"}
{"smiles": "Cc1cc2c(n1-c1ccc(C(=O)NCCc3ccc(Cl)cc3)cc1)CCC(C)C2", "note": "(configuration not stated)", "activity change, positive = activation": "inactive: 6.32%"}
{"smiles": "COc1ccc(-c2cc(C(F)(F)F)n3nc(C(=O)OC(C)C)cc3n2)cc1", "activity change, positive = activation": "inactive: -1.1%"}
{"smiles": "Cc1c(C2=CCN(S(=O)(=O)c3ccc(Cl)cc3)CC2)c2ccccc2n1CC(=O)N1CCCC1", "activity change, positive = activation": "inactive: -27.6%"}
{"smiles": "CCOc1ccccc1CNC(=O)C1CCN(c2nnc(C)c3c(C)n(-c4ccc(C)cc4)nc23)CC1", "activity change, positive = activation": "inactive: -40.7%"}
{"smiles": "CCC1CCCCN1C(=O)CSc1n[nH]c(-c2ccccc2)n1", "note": "(configuration not stated)", "activity change, positive = activation": "inactive: 27.3%"}
{"smiles": "COc1ccc(N(Cc2nnc3n2CCCCC3)C(=O)Nc2ccc(Cl)cc2)cc1Cl", "activity change, positive = activation": "inactive: -8.12%"}
{"smiles": "CC(=O)Nc1ccc(Nc2nc3ccc(Cl)cc3n3cnnc23)cc1", "activity change, positive = activation": "inactive: 0.569%"}
{"smiles": "CNC(=O)c1ccc(-c2nc(CN3CCc4ccccc43)c(C)o2)cc1", "activity change, positive = activation": "inactive: -13.5%"}
{"smiles": "Cc1cccc(OCC(=O)Nc2ccc(OCc3cc(=O)n4cc(C)ccc4n3)cc2)c1", "activity change, positive = activation": "inactive: -0.0748%"}
{"smiles": "Cc1c(Cl)cccc1NC(=O)C(C)n1nc(C)c2c(C)n(-c3ccccc3)nc2c1=O", "note": "(configuration not stated)", "activity change, positive = activation": "inactive: -20.8%"}
{"smiles": "C=C1C(=O)OC2C=C(C)CCC=C(C)CCC12", "note": "(configuration not stated)", "activity change, positive = activation": "inactive: -12.2%"}
{"smiles": "COc1ccc(S(=O)(=O)N(Cc2nc(-c3ccccc3)no2)C2CCCCC2)cc1", "activity change, positive = activation": "inactive: -22.8%"}
{"smiles": "Cc1cc(O)c2ccccc2c1O", "activity change, positive = activation": "inactive: -83.6%"}
{"smiles": "Fc1ccc(Nc2nc(SCc3ccc(Cl)cc3)nc3ccccc23)cc1", "activity change, positive = activation": "inactive: -31.8%"}
{"smiles": "Cc1ccccc1C(=O)NCC(c1ccc(N(C)C)cc1)N1CCCC1", "note": "(configuration not stated)", "activity change, positive = activation": "inactive: 18.4%"}
{"smiles": "Cc1cccc(-c2noc(-c3cccnc3NCc3ccccc3Cl)n2)c1", "activity change, positive = activation": "inactive: 10.6%"}
{"smiles": "O=S(=O)(NCC(c1ccco1)S(=O)(=O)c1ccccc1)c1cc(F)ccc1F", "note": "(configuration not stated)", "activity change, positive = activation": "inactive: -0.974%"}
{"smiles": "CNC(=O)C1CCC(Cn2c(=O)c3sccc3n(CC(=O)N3CCCCC3C)c2=O)CC1", "note": "(configuration not stated)", "activity change, positive = activation": "inactive: -5.49%"}
{"smiles": "COc1cc(C2CC(=O)N(c3ccc(C)c(Cl)c3)C3=C2C(=O)OC3)cc(OC)c1OC", "note": "(configuration not stated)", "activity change, positive = activation": "inactive: -19.2%"}
{"smiles": "O=C(CCS(=O)(=O)c1ccc(Br)s1)Nc1c(F)cccc1F", "activity change, positive = activation": "inactive: -23.2%"}
{"smiles": "CCc1ccccc1N1CC(c2nc3ccccc3n2CCCCOc2ccccc2OC)CC1=O", "note": "(configuration not stated)", "activity change, positive = activation": "inactive: -18.9%"}
{"smiles": "Cc1noc(Cn2c(=O)c3cc4c(cc3n(CC(=O)Nc3ccc(C(C)C)cc3)c2=O)OCO4)n1", "activity change, positive = activation": "inactive: -23.5%"}
{"smiles": "CC(C)NC(=O)Cc1csc2nc(-c3ccccc3)cn12", "activity change, positive = activation": "inactive: 22.5%"}
{"smiles": "COc1cccc(-c2cc(C(F)(F)F)n3nc(-c4ccc(C)cc4)cc3n2)c1", "activity change, positive = activation": "inactive: -22.9%"}
{"smiles": "CNS(=O)(=O)c1ccc(NC(=O)c2nc3nc(C)cc(C(F)F)n3n2)cc1", "activity change, positive = activation": "inactive: -20.5%"}
{"smiles": "CCN(c1ccccc1)S(=O)(=O)c1ccc(NC(=O)c2cc(=O)c3c(C)cc(C)cc3o2)cc1", "activity change, positive = activation": "inactive: 0.0695%"}
{"smiles": "O=C1CCc2cc(S(=O)(=O)NC(C(=O)Nc3ccc(F)cc3)c3ccccc3)ccc2N1", "note": "(configuration not stated)", "activity change, positive = activation": "inactive: 8.68%"}
{"smiles": "Cc1nc2nc(CNC(=O)c3cccc(F)c3)nn2c(C)c1CCC(=O)Nc1ccc(F)cc1", "activity change, positive = activation": "inactive: 4.4%"}
{"smiles": "CCOc1ccc(NS(=O)(=O)c2ccc3[nH]cc(C(=O)N4CCCC4)c(=O)c3c2)cc1", "activity change, positive = activation": "inactive: -20.8%"}
{"smiles": "CC(C)c1cnc2c(c1SCc1ccc([N+](=O)[O-])cc1)c(=O)n(C)c(=O)n2C", "activity change, positive = activation": "inactive: -1.88%"}
{"smiles": "O=c1n(Cc2ccccc2)nc2n1-c1ccccc1OC2", "activity change, positive = activation": "inactive: 11.3%"}
{"smiles": "O=c1ccc2ccccc2o1", "activity change, positive = activation": "inactive: 2.46%"}
{"smiles": "COc1cc2c(cc1OC)C(COc1ccc(F)cc1)N(C(=O)C(C)C)CC2", "note": "(configuration not stated)", "activity change, positive = activation": "inactive: -29.7%"}
{"smiles": "CCn1cnc2c(=O)oc3ccc(S(=O)(=O)N4CCN(c5cc(C)ccc5C)CC4)cc3c21", "activity change, positive = activation": "inactive: -8.98%"}
{"smiles": "O=S(=O)(NCCc1ccc(Cl)cc1)c1ccc(N2CCCCS2(=O)=O)cc1", "activity change, positive = activation": "inactive: -14.9%"}
{"smiles": "COc1ccc(C2=C(C)C(=O)N(Cc3ccc(C(=O)NCc4ccccc4C)cc3)S2(=O)=O)cc1", "activity change, positive = activation": "inactive: -32.2%"}
{"smiles": "CCOc1ccc(NC(=O)CCn2c(-c3ccc(F)cc3)cc(C(C)=O)c2C)cc1", "activity change, positive = activation": "inactive: -22.1%"}
{"smiles": "Cc1ccc(C2C=C(c3ccc(Cl)cc3)Nc3nc(NC(=O)CCC(=O)O)nn32)cc1", "note": "(configuration not stated)", "activity change, positive = activation": "inactive: -2.54%"}
{"smiles": "O=C(CSc1nnc(-c2ccccc2)c(-c2ccccc2)n1)Nc1ccccc1Cl", "activity change, positive = activation": "inactive: -28.2%"}
{"smiles": "CCCOc1ccc(C(=O)Nc2cc3nn(-c4ccc(CC)cc4)nc3cc2C)cc1", "activity change, positive = activation": "inactive: 18%"}
{"smiles": "COc1ccccc1OCCCn1c(-c2ccc(Cl)cc2)nc2ccccc2c1=O", "activity change, positive = activation": "inactive: -5.71%"}
{"smiles": "CCC(C)Cn1c(COc2ccc(OC)cc2)nc2ccccc21", "note": "(configuration not stated)", "activity change, positive = activation": "inactive: 10.6%"}
